Source: paper PMC4336329 (PLoS ONE, 2015)
In all, about 310,000 compounds went through this assay and about 2,200 (0.71%) showed an effect of 50% or more. The effect is printed as a negative number. Some of the results follow.

Biological target: human ether-à-go-go-related gene (hERG) potassium channel (human, UniProt Q12809)
Test: primary screen, population patch clamp on CHO cells stably expressing hERG

Sequence of human ether-à-go-go-related gene (hERG) potassium channel (Q12809 whole entry, looked up): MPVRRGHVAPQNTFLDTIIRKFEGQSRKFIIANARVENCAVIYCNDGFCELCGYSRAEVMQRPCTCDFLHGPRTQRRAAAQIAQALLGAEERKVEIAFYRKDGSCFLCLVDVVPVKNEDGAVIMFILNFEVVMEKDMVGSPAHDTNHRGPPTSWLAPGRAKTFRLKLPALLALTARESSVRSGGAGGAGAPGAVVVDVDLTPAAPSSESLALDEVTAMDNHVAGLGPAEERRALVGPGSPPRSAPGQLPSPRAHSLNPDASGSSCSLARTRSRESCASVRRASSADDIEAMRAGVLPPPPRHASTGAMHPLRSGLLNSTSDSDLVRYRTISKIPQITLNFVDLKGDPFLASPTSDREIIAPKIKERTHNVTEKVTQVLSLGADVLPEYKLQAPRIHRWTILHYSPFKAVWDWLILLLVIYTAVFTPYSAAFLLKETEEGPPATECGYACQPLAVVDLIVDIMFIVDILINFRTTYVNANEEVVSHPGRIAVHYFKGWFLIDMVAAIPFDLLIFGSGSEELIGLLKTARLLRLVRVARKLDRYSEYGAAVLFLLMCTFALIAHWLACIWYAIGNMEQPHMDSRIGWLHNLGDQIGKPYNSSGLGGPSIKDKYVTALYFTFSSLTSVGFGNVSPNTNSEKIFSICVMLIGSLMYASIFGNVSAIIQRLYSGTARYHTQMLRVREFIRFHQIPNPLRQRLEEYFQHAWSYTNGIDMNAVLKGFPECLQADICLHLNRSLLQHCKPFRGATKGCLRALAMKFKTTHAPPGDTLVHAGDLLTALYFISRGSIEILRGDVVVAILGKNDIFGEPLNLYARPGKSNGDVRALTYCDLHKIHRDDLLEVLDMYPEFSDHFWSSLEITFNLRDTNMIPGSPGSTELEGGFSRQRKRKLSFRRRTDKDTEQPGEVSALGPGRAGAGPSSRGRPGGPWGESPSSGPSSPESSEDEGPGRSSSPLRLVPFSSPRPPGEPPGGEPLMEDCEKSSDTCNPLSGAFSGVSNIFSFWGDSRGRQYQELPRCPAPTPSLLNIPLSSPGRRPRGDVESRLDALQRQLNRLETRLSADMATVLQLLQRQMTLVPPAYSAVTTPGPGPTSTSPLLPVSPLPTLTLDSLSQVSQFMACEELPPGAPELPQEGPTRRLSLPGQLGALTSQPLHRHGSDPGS

| Structure (SMILES) | hERG current change (%, negative = inhibition) at 1uM [%] |
| --- | --- |
| CCOCCCN1C(=O)CN(C2CCCCCC2)C(=O)C1c1ccc(OC)cc1 (centres unmarked) | 10.2 |
| COc1ccc(OCc2cccc(C(=O)Nc3ccc(CN4CCCCC4)cc3)c2)cc1 | -2.8 |
| Cn1c2ccccc2c2cnn(CC(=O)N3CCC4(CC3)OCCO4)c(=O)c21 | -1.85 |
| CCCN(CCO)Cc1ccc(Cl)c(Cl)c1 | -2.47 |
| COc1ccc(S(=O)(=O)N2CCCC(C(=O)N3CCOCC3)C2)cc1Cl (centres unmarked) | 4.43 |
| Cc1cc(C)c(S(=O)(=O)NC2CC3CCC2C3)c(C)c1 (centres unmarked) | 11.3 |
| Cc1cc(NC(=O)CSc2nc3cc(C)c(C)cc3cc2C)no1 | 17.1 |
| O=c1[nH]c2c(c3c1CCCC3)CCCC2 | 12.8 |
| Cc1cc(C)cc(NC(=O)NN2C(C)CCCC2C)c1 (centres unmarked) | 8.12 |
| CC(=O)N1CCC2(CC1)C/C(=N\NC(=S)Nc1ccccc1C)c1cc(O)ccc1O2 | -4.91 |
| Brc1ccc(-c2nn3c(-c4ccccn4)nnc3s2)o1 | -10.4 |
| Cc1cccc(OCCCC(=O)NC(C)C)c1 | 3.35 |
| C[C@H](Cc1ccccc1)Nc1ncnc2c1ncn2[C@@H]1O[C@H](CO)[C@@H](O)[C@H]1O | 11.7 |
| CN1C(=O)C(=Cc2coc3ccccc3c2=O)C(=O)N(C)C1=O | 11.7 |
| Cc1csc(N/N=C/c2ccc(O)c([N+](=O)[O-])c2)n1 | 4.45 |
| CCOC(=O)C1CCCN(C(=O)c2cccc(S(=O)(=O)N(C)c3c(C)n(C)n(-c4ccccc4)c3=O)c2)C1 (centres unmarked) | -5.33 |
| O=C(CNC(=O)c1ccc(Br)cc1)NCc1cccnc1 | 15.9 |
| N#CC1=C(N)Oc2cc(N)ccc2C1c1cccnc1 (centres unmarked) | 4.06 |
| O=C(NNC(=O)C1CCN(Cc2ccc(F)cc2Cl)CC1)Nc1ccc([N+](=O)[O-])cc1 | -8.18 |
| COc1ccc2c(c1OC)C(=O)N1N=C(c3ccc(-c4ccccc4)cc3)CC21 (centres unmarked) | 15.4 |
| Cl.NCCc1nnc(SCc2ccccc2Cl)o1 | 24.8 |
| CCO[C@H]1OC(C(=O)N2CCN(Cc3ccc4c(c3)OCO4)CC2)=C[C@@H](c2ccccc2)[C@@H]1CCCO | 4.36 |

| Structure (SMILES) | hERG current change (%, negative = inhibition) at 1uM [%] |
| --- | --- |
| COc1cccc(-n2nc(C(=O)N3CCN(Cc4ccccc4)CC3)c3ccccc3c2=O)c1 | -4.12 |
| COc1ccc(CCNC(=O)C2CCN(C(=O)c3ccccc3C)CC2)cc1 | 15.5 |
| O=C(c1ccco1)N1CCN(C(=O)c2cnn(-c3cccc(F)c3)c2C2CCNCC2)CC1 | 15.1 |
| COc1ccccc1/C=C/c1ccc2cccc(O)c2n1 | 12.1 |
| Cc1c(C(=O)NC2=NCCS2)oc2ccccc12 | -16.6 |
| COc1ccccc1S(=O)(=O)Cc1ccc(C(=O)NCc2ccccc2)o1 | 15.9 |
| O=C(NCCCN1CCOCC1)c1cc(-c2ccc(Br)cc2)on1 | -31.2 |
| Cc1cc(OCc2nn[nH]n2)c2c(-c3ccccc3)cc(=O)oc2c1 | 2.42 |
| CN(C)CCN(Cc1ccco1)S(=O)(=O)c1ccc(-c2ccc(=O)[nH]n2)s1 | -22.4 |
| CC1(C)C(=O)Nc2ccccc2N1C(=O)CSc1nc(-c2ccccc2)cs1 | 11.1 |
| CCC(C)c1ccccc1N1CC(C(=O)N2CCN(C(=O)c3ccco3)CC2)CC1=O (centres unmarked) | 9.39 |
| Cc1ccc(CN2C3=NC(=O)CN3c3ccccc32)cc1 | 6.57 |
| Cc1ccc(-c2nc(CN(Cc3cnn(C)c3)C(C)C)c(C)o2)o1 | 5.42 |
| Cn1c(SCC(=O)NC(=O)NCc2ccco2)nnc1-c1ccccc1 | 3.72 |
| C/C(=N\NC(=S)NCc1ccccc1)c1ccccc1F | 14 |
| CN(C(=O)C1CCOC1)c1nnc(-c2ccncc2)s1 (centres unmarked) | 6.92 |
| COc1cc(NC(=O)c2cccc(COCC(F)(F)C(F)F)c2)cc(OC)c1OC | 2.92 |
| Cc1ccc(/C=N/NC(=O)C(=O)N/N=C/c2ccc(C)o2)o1 | 7.17 |
| CCc1ccc(N2C(=O)/C(=C/c3cccs3)N(CC(=O)OC)C2=S)cc1 | 10.1 |
| Cc1[nH]c2ccccc2c1C(=O)CN1CC(C)OC(C)C1 (centres unmarked) | 8.25 |
| C/C(=N/OC(=O)c1ccc(F)cc1)c1ccc(C)cc1 | 13.9 |
| Brc1ccc(N=Cc2ccccn2)cc1 | 16.9 |
